# Hit rate of the full screen: of about 94,000 compounds, about 4,000 (4.3%) were called active. This list was built around the results that the source calls inconclusive (neither active nor inactive); the mix of calls is not that of the screen. The call rests on the fitted dose curve; in most records, active means well fitted inhibition curve with a large enough effect; inconclusive means small, poorly fitted or top-dose-only effect; inactive means no such curve, though single readings can be large or run the other way. Where the call is inconclusive, the potency comes from a doubtful curve fit.
# Assay: Cytotoxic Profiling in NIH 3T3 Cell Line of Diverse Libraries Using Quantitative High-Throughput Screening; further: nearly all actives have a fitted effect of over 55% in size
# Conditions: NIH 3T3 viability, CellTiter-Glo ATP luminescence, 48-72 h; series mostly up to 96.7 µM
# Procedure, shortened: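 Cells were seeded at 400 per well, treated with pin-transferred compound, and kept 48 or 72 hr at 37 °C before CellTiter-Glo addition and luminescence imaging of cellular ATP.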
# Potency means the concentration at half of the fitted maximal effect; tags describe the fitted curve by direction and shape.
row,SMILES,Potency
1,Cc1ccc(NC(=O)C2CCc3nnc(CNC(=O)NC(C)(C)C)n32)cc1 (configuration not stated),inactive
2,CS(=O)(=O)N[C@H]1C[C@H]2C(=O)Nc3ccc(-c4cccc(C(F)(F)F)c4)cc3C(=O)N2C1,"inconclusive: 44.7 µM [inhibitor, partial curve]"
3,O=C1c2cnc(-c3cc4ccccc4o3)nc2OCCN1c1ccccc1,inactive
4,COc1cccc(-c2noc(-c3ccc(NCCCSC)nc3)n2)c1OC,"inconclusive: 89.1 µM [inhibitor, partial curve, poor fit]"
5,COc1cc(Nc2ccc3nnc(-c4ccc(C)cn4)n3n2)cc(OC)c1OC,"inconclusive: 79.4 µM [inhibitor, partial curve, poor fit]"
6,CCOc1cccc(-c2nc(C(=O)NCCc3ccccc3OC)cs2)c1,"inconclusive: 50.1 µM [inhibitor, partial curve, poor fit]"
7,CCCc1noc(-c2cccn3c(CNC(=O)c4cc(C)ccc4C)nnc23)n1,inactive
8,Cn1nc(-c2ccncc2)cc1NC(=O)c1ccccc1,"inconclusive: 50.1 µM [inhibitor, partial curve]"
9,CCC1(CC)CCN(C(=O)c2coc(COc3ccc4sc(C)nc4c3)n2)C1,"inconclusive: 50.1 µM [inhibitor, partial curve, poor fit]"
10,Cc1ccc(NC(=O)N2CC(CN3C(=O)c4c(c(C)nn4-c4ccccc4)C3C)C2)cc1F (configuration not stated),"inconclusive: 5.62 µM [inhibitor, full curve, poor fit]"
11,CNC(=O)N1CCc2nc(N3CCOCC3)[nH]c(=O)c2CC1,inactive
12,CC1(C(=O)NCc2cccnc2)COCc2cnc(Nc3ccccc3)nc21 (configuration not stated),"inconclusive: 112 µM [inhibitor, single point]"
13,O=C(NCc1ccccc1F)C1CCCN(Cc2cccc(-c3ccc(F)cc3F)c2)C1 (configuration not stated),"inconclusive: 39.8 µM [inhibitor, partial curve, poor fit]"
14,O=C(NC1CC1)c1cc(-c2ccccc2C(F)(F)F)nc2onc(C3CCNC3)c12 (configuration not stated),"inconclusive: 70.8 µM [inhibitor, single point]"
15,COCc1ccc2c(c1)c(OC(C)(C)C(=O)Nc1cc(C)nn1C)nn2CCC(C)C,"inconclusive: 100 µM [inhibitor, partial curve, poor fit]"
16,Cc1noc2c(N3CC[S+](=O)([O-])CC3)cc(-c3ccccc3)nc12,"inconclusive: 100 µM [inhibitor, partial curve, poor fit]"
17,CC1=C(C(=O)OC(C)(C)C)C(c2ccccc2)N2C(CC(=O)NCc3ccco3)=CSC2=N1 (configuration not stated),"inconclusive: 70.8 µM [inhibitor, single point]"
18,Cn1c(N2CCN(C(=O)CC[C@H]3NC(=O)c4ccccc4NC3=O)CC2)nc2ccccc21,inactive
19,Cc1cc(N2CCC(NCc3cc(C)nn3C)CC2)nc(-c2ccccc2)n1,"inconclusive: 35.5 µM [inhibitor, partial curve, poor fit]"
20,CN(C)c1ncnc2sc3c(c12)CCN(Cc1ccccc1)C3,"inconclusive: 44.7 µM [inhibitor, partial curve, poor fit]"
21,O=C(NCc1ccc(F)c(F)c1)c1ccc2nc(-c3ccccn3)oc2c1,"inconclusive: 56.2 µM [inhibitor, partial curve, poor fit]"

row,SMILES,Potency
1,CC(C)c1nnsc1CNCc1ccccc1OCCCCN1CCOCC1,inactive
2,COc1ccc(-c2cc(N3CCCC(NC(=O)c4ccccc4Br)C3)n[nH]2)cc1 (configuration not stated),"inconclusive: 50.1 µM [inhibitor, partial curve, poor fit]"
3,CC(C)(Oc1nn(Cc2cccc(Cl)c2)c2ccccc12)C(=O)NCCc1cnc[nH]1,"inconclusive: 56.2 µM [inhibitor, partial curve, poor fit]"
4,Cc1nn(C)c(C)c1C(=O)N1CC(n2cc(COCC3CC3)nn2)C1,inactive
5,C[C@H]1[C@@H]2[C@@H](O)[C@H]([C@H](C)C(=O)N3CCCC3)CC[C@@]2(C)CC[C@@H]1NC(=O)c1cncnc1,"inconclusive: 79.4 µM [inhibitor, partial curve]"
6,CC(C)CCN1CCC2(CC1)CC(=O)c1ccc(Cl)cc1O2,"inconclusive: 56.2 µM [inhibitor, partial curve, poor fit]"
7,COc1ccc(OC)c(CN2CCCn3nc(C)c(-c4ccccc4OCc4ccccc4)c32)c1,active: 8.91 µM
8,C=CCNC(=O)Cc1ccc(N(Cc2cccc(F)c2)C(=O)c2ccco2)cc1,inactive
9,COc1ccc(C(=O)N2CCc3ccc(C(=O)NC(C)C)cc32)cc1,"inconclusive: 50.1 µM [inhibitor, partial curve, poor fit]"
10,NCC1Cn2cccc2CN1Cc1ccccc1 (configuration not stated),"inconclusive: 50.1 µM [inhibitor, partial curve, poor fit]"
11,CC(C)CCN1CCCC2(CN[S+](=O)([O-])c3ccccc3N2)C1 (configuration not stated),"inconclusive: 89.1 µM [inhibitor, partial curve]"
12,O=C(NCc1ccccc1)N1CC(Oc2ccc(-c3nc(-c4ccccc4)no3)cc2)C1,inactive
13,CC(C)OC(=O)N1CCC(COc2ccc3c(cnn3CC[S+](C)(=O)[O-])c2)CC1,"inconclusive: 44.7 µM [inhibitor, partial curve, poor fit]"
14,COc1ccc(S(=O)(=O)Nc2ccc(C)n(CC(=O)N(C)C)c2=O)cc1,inactive
15,CCOCCNC(=O)C1CCCCN1Cc1ccc(-c2cc(F)ccc2OC)cc1 (configuration not stated),active: 39.8 µM
16,CN(C)c1cccc(C(=O)N2CCC3(CC2)N=C(c2ccc(Br)cc2)NO3)c1,"inconclusive: 50.1 µM [inhibitor, partial curve, poor fit]"
17,O=C1CC(c2noc(-c3cc(F)ccc3F)n2)CN1c1ccc(Cl)cc1 (configuration not stated),"inconclusive: 50.1 µM [inhibitor, partial curve, poor fit]"
18,O=C(Nc1ccc(F)c(Cl)c1)N1CCC2(CC1)SCC(=O)N2Cc1ccco1,"inconclusive: 44.7 µM [inhibitor, partial curve, poor fit]"
19,COc1ccc(C(=O)N2CCC3(CC2)NC(=O)N(c2ccccc2)N3)cn1,"inconclusive: 28.2 µM [inhibitor, full curve]"
20,CCN1CCN(Cc2cc(C)cc(CN(C)Cc3ccccn3)c2C)CC1,inactive
21,C[C@]1(O)CCN(C(=O)c2ccc(N3CCOCC3)cc2)C[C@@H]1O,inactive

row,SMILES,Potency
1,COc1ccc(CN2C(=O)CO[C@H](c3ccc(NC(=O)Nc4ccccc4)cc3)[C@H]2CO)cc1,"inconclusive: 50.1 µM [inhibitor, partial curve, poor fit]"
2,CCc1ccc(C(=O)N2CCC3(CC2)N=C(c2ccc(C)cc2)NO3)cc1,inactive
3,COc1cncc(CN2CCC3(CC2)OC(=O)N(Cc2csc(C)n2)C3(C)c2ccccc2)c1 (configuration not stated),"inconclusive: 10 µM [inhibitor, partial curve, poor fit]"
4,Cc1noc(C)c1Cc1ccc(C(=O)N2CCC3(CC2)CC(Cc2ccc(F)cc2)CCO3)o1 (configuration not stated),"inconclusive: 44.7 µM [inhibitor, partial curve, poor fit]"
5,N#Cc1cccc(C(=O)Nc2ccc3ncnc(N4CCCCC4)c3c2)c1,"inconclusive: 50.1 µM [inhibitor, partial curve, poor fit]"
6,CC(C)(C(=O)NCCC1COc2ccccc2O1)N1CCOCC1 (configuration not stated),inactive
7,O=C([C@@H]1C[C@@H]2C=C[C@H]1C2)N1CCc2c(nc(-c3cccnc3)[nH]c2=O)C1,"inconclusive: 25.1 µM [inhibitor, full curve, poor fit]"
8,Cc1noc(C)c1-c1nccc2c(=O)cc(-c3ccccn3)oc12,"inconclusive: 44.7 µM [inhibitor, partial curve]"
9,Cc1ccc(-c2ccc3nnc(CNC(=O)c4ccccn4)n3n2)cc1,"inconclusive: 44.7 µM [inhibitor, partial curve, poor fit]"
10,COCCc1noc(CC2CCOC3(CCN(S(=O)(=O)c4cccc5cccnc45)CC3)C2)n1 (configuration not stated),inactive
11,O=C(NCc1nnc2ccc(-c3ccc(F)cc3)nn12)c1ccc(Cl)s1,inactive
12,CC(=O)N1CCC(Oc2ccc(Cl)cc2C(=O)NCCCN2CCCC2=O)CC1,"inconclusive: 89.1 µM [inhibitor, partial curve, poor fit]"
13,COCCn1c(=O)c2c(n1Cc1ccccc1)CN(Cc1cccc(C)n1)CC2,"inconclusive: 100 µM [inhibitor, partial curve, poor fit]"
14,NC(=O)[C@H](CC1CCCCC1)NC(=O)[C@@H]1CN(S(=O)(=O)c2ccccc2)CCN1S(=O)(=O)c1ccccc1,"inconclusive: 56.2 µM [inhibitor, partial curve, poor fit]"
15,O=C(NCc1cccc(C(F)(F)F)c1)c1cn2cc(-c3ccc(C(F)(F)F)cc3)sc2n1,"inconclusive: 11.2 µM [inhibitor, partial curve, poor fit]"
16,O=C(C1CN(c2ccccc2)C(=O)N1)N1CCN(Cc2ccccc2)CC1 (configuration not stated),"inconclusive: 70.8 µM [inhibitor, partial curve, poor fit]"
17,CCNC(=O)N[C@H]1[C@H](O)[C@H](O)C[C@@H]1c1cncnc1,inactive
18,O=C(NCc1cccs1)c1nc2cccnc2n(Cc2ccccc2)c1=O,inactive
19,COc1ccc(-c2ccc3nnc(CNC(=O)c4cccc(C#N)c4)n3n2)cc1,"inconclusive: 70.8 µM [inhibitor, single point]"
20,CNC(=O)c1cc(C2CC2)nc2c1c(C1CCCN(C(=O)c3ccc(F)cc3)C1)nn2C (configuration not stated),"inconclusive: 50.1 µM [inhibitor, partial curve, poor fit]"

# Source: PubChem BioAssay AID1345082 (National Center for Advancing Translational Sciences (NCATS), 2018)
